From the supplement of paper PMC12355420
Structures can show the parent of a compound that is named as a salt. The list shows a part of the results. Most values come without repeats; read them as rough.

test system: HeLa VPS33A KO + NLuc-VPS33A R498W; experiment: relative mutant VPS33A R498W amount (NanoLuc luminescence) vs DMSO (fraction of DMSO); HeLa model of a glycosaminoglycan (GAG) storage disease; KI is knock-in and KO knock-out; SDC1 is syndecan 1; higher = higher mutant VPS33A level; settings: 50 µM; 24 h
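Also: screen of an FDA-approved drug library, NanoLuc luminescence read after lysing the treated cells, taken as a measure of mutant VPS33A protein stability.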

Compound	relative mutant VPS33A R498W amount
Cc1cc(Nc2cc(N3CCN(C)CC3)nc(Sc3ccc(NC(=O)C4CC4)cc3)n2)n[nH]1 [VX-680 (MK-0457,Tozasertib)]	0.514
CC[C@@]1(O)C(=O)OCc2c1cc1n(c2=O)Cc2cc3cc(O)ccc3nc2-1 [10-Hydroxycamptothecin]	0.571
NC(CO)C(=O)O (racemic) [DL-Serine]	0.927
Cl.NCCCC[C@H](N)C(=O)O [L-Lysine hydrochloride]	1.07
O=c1[nH]c(=O)n([C@H]2C[C@H](O)[C@@H](CO)O2)cc1C(F)(F)F [Triflurdine (Viroptic)]	0.949
COc1ccc(CNc2nc(N3CCC[C@H]3CO)ncc2C(=O)NCc2ncccn2)cc1Cl [Avanafil]	0.948
Nc1ncnc2c1ncn2[C@@H]1O[C@H](CO)[C@@H](O)[C@@H]1O [Vidarabine]	1.61
CO[C@@]1(NC(=O)Cc2cccs2)C(=O)N2C(C(=O)O)=C(COC(N)=O)CS[C@@H]21 [Cefoxitin (sodium salt)]	1.51
C[C@]12C[C@H](O)[C@H]3[C@@H](CCC4=CC(=O)CC[C@@]43C)[C@@H]1CC[C@@H]2C(=O)CO [Corticosterone]	1.01
O=C1Cc2cc(CCN3CCN(c4nsc5ccccc45)CC3)c(Cl)cc2N1 [Ziprasidone]	1.19
CCC(=O)NCC[C@@H]1CCc2ccc3c(c21)CCO3 [Ramelteon]	0.921
CC(C)(C)NCC(O)c1cc(O)cc(O)c1 (centres undefined) [Terbutaline Sulfate]	0.865
O=c1[nH]cnc2nc[nH]c12 [Hypoxanthine]	1.1
C[N+]1(C)CCC(=C(c2ccccc2)c2ccccc2)CC1 [Diphemanil Methylsulfate]	0.529
C#C[C@]1(O)CC[C@H]2[C@@H]3CCC4=Cc5oncc5C[C@]4(C)[C@H]3CC[C@@]21C [Danazol]	1.24
CCc1ccc(CCOc2ccc(CC3SC(=O)NC3=O)cc2)nc1 (centres undefined) [Pioglitazone]	1.26
CC(C)C[C@H](NC(=O)[C@@H](O)[C@H](N)Cc1ccccc1)C(=O)O [Bestatin]	1.03

Compound	relative mutant VPS33A R498W amount
CN(CCOc1ccc(CC2SC(=O)NC2=O)cc1)c1ccccn1 (centres undefined) [Rosiglitazone HCl]	0.732
CNC(=O)c1cc(Oc2ccc(NC(=O)Nc3ccc(Cl)c(C(F)(F)F)c3)c(F)c2)ccn1 [Regorafenib monohydrate]	0.128
C[C@H](CCC(=O)NCC(=O)O)[C@H]1CC[C@H]2[C@@H]3[C@H](O)C[C@@H]4C[C@H](O)CC[C@]4(C)[C@H]3C[C@H](O)[C@]12C [Glycocholic Acid]	1.4
COc1ccc2c(c1)c(CC(=O)O)c(C)n2C(=O)c1ccc(Cl)cc1 [Indomethacin]	0.864
COc1ccc(-n2nc(C(N)=O)c3c2C(=O)N(c2ccc(N4CCCCC4=O)cc2)CC3)cc1 [Apixaban]	0.857
COC(=O)N[C@H](C(=O)N[C@@H](Cc1ccccc1)[C@@H](O)CN(Cc1ccc(-c2ccccn2)cc1)NC(=O)[C@@H](NC(=O)OC)C(C)(C)C)C(C)(C)C	0.916
CC(=O)O[C@H]1C[C@@H]2CC[C@@H]3[C@H](CC[C@@]4(C)[C@H]3C[C@H]([N+]3(C)CCCCC3)[C@@H]4OC(C)=O)[C@@]2(C)C[C@@H]1N1CCCCC1 [Vecuronium Bromide]	1.48
CC(C)[C@H](N)C(=O)O [L-Valine]	1.06
CC1(C)S[C@@H]2[C@H](NC(=O)[C@H](N)c3ccc(O)cc3)C(=O)N2[C@H]1C(=O)O [Amoxicillin]	1.13
N=C(N)NCCC[C@H](N)C(=O)O [L-Arginine (hydrochloride)]	1.04
COc1ccc(OC)c(C(O)CNC(=O)CN)c1 (centres undefined) [Midodrine (hydrochloride)]	1.64
Cc1c(-c2cnccn2)ssc1=S [Oltipraz]	0.72
Cc1nccn1CC1CCc2c(c3ccccc3n2C)C1=O (centres undefined) [Ondansetron hydrochloride dihydrate]	0.712
O=C(O)CCCc1ccccc1 [Sodium Phenylbutyrate]	1.23
Cc1ncc(CO)c(CO)c1O [Pyridoxine HCl]	1.27
CC(=O)OCC(=O)[C@@]1(O)[C@H](C)C[C@H]2[C@@H]3CCC4=CC(=O)C=C[C@]4(C)[C@@]3(F)[C@@H](O)C[C@@]21C [Dexamethasone acetate]	1.01
CCCCNc1cc(C(=O)O)cc(S(N)(=O)=O)c1Oc1ccccc1 [Bumetanide]	1.39
